In paper PMC5520693:
No constants are given. Whether binding was seen depends on the method and setting. In cells and extracts the contact can be indirect. Some results given as binding are weak or reduced against the parent protein; the word gives no strength. Tags and fused reporters may be left off the sequences shown.

Target: T1, Flag-tagged TRIM45 (stably overexpressed in U87) (UniProt Q9H8W5)
T1 sequence: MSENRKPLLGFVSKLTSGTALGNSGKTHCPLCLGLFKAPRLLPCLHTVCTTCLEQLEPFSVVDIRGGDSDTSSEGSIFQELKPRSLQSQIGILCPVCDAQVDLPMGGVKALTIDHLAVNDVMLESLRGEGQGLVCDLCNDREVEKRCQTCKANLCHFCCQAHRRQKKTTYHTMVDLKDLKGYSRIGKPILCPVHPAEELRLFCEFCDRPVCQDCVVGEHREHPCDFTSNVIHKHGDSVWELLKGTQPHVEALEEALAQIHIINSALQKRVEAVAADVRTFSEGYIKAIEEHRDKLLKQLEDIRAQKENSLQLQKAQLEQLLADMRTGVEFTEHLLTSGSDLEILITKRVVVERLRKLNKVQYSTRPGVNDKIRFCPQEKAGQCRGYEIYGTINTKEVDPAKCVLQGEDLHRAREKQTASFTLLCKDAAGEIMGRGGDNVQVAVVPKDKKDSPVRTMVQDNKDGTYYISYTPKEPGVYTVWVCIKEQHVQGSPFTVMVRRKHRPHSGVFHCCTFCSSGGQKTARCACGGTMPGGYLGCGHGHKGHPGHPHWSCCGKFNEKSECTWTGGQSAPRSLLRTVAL
Test: co-IP; extracts of U87 cells stably overexpressing Flag-TRIM45 or control cells; immunoprecipitated with anti-Flag beads, immunoblotted with anti-p53

binding: binds
Substance: endogenous p53 (from UniProt P04637 1-393)
